Self-cleavage data for 56 variants are collected here from the RNAGym collection of RNA variant scans (doi:10.7554/elife.90254).

B1: LINE1-mini (parent)
chain: GGCAGAGCUCAACACAGCGUGGCAAAGUGGCUGUGGCUAGACUGCC

The source gives no read counts; variants with many changes may rest on few reads.

The series covers variants of B1. Briefly: self-cleavage, relative activity (ratio to wild type); higher = more cleavage; in vitro, sequencing; the parent is a self-cleaving ribozyme.
With GGCGGAGGUCAACAAAGCGUGGCAAAGUGGCUGUGGCUAGACUGCC [A4G C8G C15A], the self-cleavage was determined as 0.05.

Consider GGCGGAGAUCAACACAGCGUGGCGAAGUGGCUGUGGCUAGGCAGCC [A4G C8A A24G A41G U43A], for which the self-cleavage is 0.29.

On to GGCGGAGCUAAACACAGCGAGGCAACGUGGCUGUGGCUAAACUGCC [A4G C10A U20A A26C G40A], for which the self-cleavage came out at 0.01.

For GGCGGAGCUUAACUCAGCGUGGCAAAGUGGCUGUGGCUAGACUGCC [A4G C10U A14U], the self-cleavage worked out at 0.16.

Consider GGCGGAGCUCAACACAGCGUGGCGAAGUGGCUGUGGCUAGACUGUC [A4G A24G C45U], for which the self-cleavage came out at 0.09.

Consider GGCGGAGCUCAACACAGCGUGGCAGAGCGGCUGUGGAUAGUCUGCC [A4G A25G U28C C37A A41U], for which the self-cleavage was 0.21.

Take GGCGGAGGUCAACACAGCGUGGCAAAGUGGCUGUGGCUAGACUGUC [A4G C8G C45U]: the self-cleavage is 0.05.

GGCGGAGCUCAACAGAGAGUGGCAAAGAGGCUGUGGCUAUUCUGCC [A4G C15G C18A U28A G40U A41U]: the self-cleavage is 0.07.

Regarding GGCGGCGCUCAACACAGCGUCGCAAAGUGGUUGUGGCUAGACUGCC [A4G A6C G21C C31U], the self-cleavage amounted to 0.06.

Consider GGCGGGGCUCAACACAGCGUGGCAAAGUGGCUGCGGCUAGAAAGCC [A4G A6G U34C C42A U43A], for which the self-cleavage came to 0.12.

For the variant GGCGGAGAUCACCACAGCGUGGCAAAGUGGCUGUGGCUAAAAUGCC [A4G C8A A12C G40A C42A], the self-cleavage came out at 0.01.

GGCGGAGCUCAACACAGGGUGGCAAAGUGGCUGUGGCUUGAUUGCC [A4G C18G A39U C42U]: the self-cleavage is 0.08.

For the variant GGCGAAGCUCAACACAGCGUGGCAAAGUCGCUGUGGCUAGACUGCC [A4G G5A G29C], the self-cleavage worked out at 0.06.

Consider GGCGGAGCUCAACACUGCGUGGCAACGUGGCUGUGGCUAGACUGCC [A4G A16U A26C], for which the self-cleavage was 0.03.

With GGCGGAGCUCAACACAGCGUGGCAAUGUGACUGUGGCUAGCCUGCC [A4G A26U G30A A41C], the self-cleavage was found to be 0.02.

GGCGGAGCUUAACGCGGUGUGGCAAAGUGGCUGUAGCUAGACUGUC [A4G C10U A14G A16G C18U G35A C45U]: the self-cleavage stood at 0.02.

GGCGGAGCUCAUCACAGCGUGGCAAAGUGGCUGUGGCUAGACUACC [A4G A12U G44A]: the self-cleavage was determined as 0.03.

GGCGGAGCUCAACACUGCGUGGCAAAGUGGCUGUUGCGAGACUGGC [A4G A16U G35U U38G C45G]: the self-cleavage stood at 0.02.

Regarding GGCGAAGCUGAACACAGCGUGGCAAAGUGGCUGUGGGUAGACUGCC [A4G G5A C10G C37G], the self-cleavage came out at 0.01.

In the case of GGCGGAGCUCAAUACAGCGUGGCAAAGGGGCUGUGGCGAGACUGCU [A4G C13U U28G U38G C46U], the self-cleavage turned out to be 0.01.

Turning to GGCGGAGCUCUACACAGCGUGGCGAAGUGGCUGUGGCUAGACUGCC [A4G A11U A24G], the self-cleavage came out at 0.02.

GGCGGAGCUCACCACGACGUGGCAAAGUCGCUGUGGCUAGACUGCC [A4G A12C A16G G17A G29C]: the self-cleavage is 0.01.

With GGCGGAGCUCAAGCCAGCGUGGCAACGUGGCUGUGGCGAGACUGCA [A4G C13G A14C A26C U38G C46A], the self-cleavage is 0.04.

GGCGGAGCUCAACACAGCGUGGCAAAGUGGCUGUGGAUAGACUGAC [A4G C37A C45A]: the self-cleavage came out at 0.64.

Turning to GGCGGAGCUCAACAAAGCGCUGCAGAGUGGCUGUGGCUAGACUGCC [A4G C15A U20C G21U A25G], the self-cleavage is 0.12.

Consider GGCGGAGAUCAACACAGCGUGGCAAUGUGGCUAUGGCUACACUGCC [A4G C8A A26U G33A G40C], for which the self-cleavage was 0.16.

Take GGCGAAGCUCAACACAGUGUGGCAAAGUGGCUGUGGCUAGACUGCC [A4G G5A C18U]: the self-cleavage is 0.03.

Turning to GGCGGAGCUCAUCAAAGCGUGGCAAAGUGGCUGUGGCUAGACUGCC [A4G A12U C15A], the self-cleavage came out at 0.1.

Regarding GGCGGAGCUCAUCACAGCGUGGCAAAGUGGCUGUGGGGAGACUGCC [A4G A12U C37G U38G], the self-cleavage was determined as 0.01.

GGCGGAGCUCGACACAACGUGGGAAAGUGGCUGUGGCUAGACUGCC [A4G A11G G17A C23G]: the self-cleavage worked out at 0.02.

As to GGCGGAGCUCAACACAGCGUGGAUAAGUGGCUGUGGCUAGACUGCC [A4G C23A A24U], the self-cleavage amounted to 0.69.

Take GGCGGAGUUCAUCACAGCGUGGGAAAGUGGCUGUGGCUAGACUGCC [A4G C8U A12U C23G]: the self-cleavage came to 0.1.

Regarding GGCGGAGCUCAAUACAGCGUGGCAUAGUGGCUGUGGGUAAACUGCC [A4G C13U A25U C37G G40A], the self-cleavage stood at 0.06.

For GGCGGAGCUCAACACAGAGUGGCAAAGUGGCUGUGGCUAUACUGCC [A4G C18A G40U], the self-cleavage came out at 0.16.

GGCGGAGCUCCACACACCGUGGCAAAGUUGCUCUGGCUAGACUGCC [A4G A11C G17C G29U G33C]: the self-cleavage worked out at 0.03.

Turning to GGCGGAGCUGAAAACAUCGUGGCAAAUUAGGUGUGGCUAGACUGCC [A4G C10G C13A G17U G27U G29A C31G], the self-cleavage came out at 0.03.

Consider GGCGGAGCUCAACACAGCGUGGAACAGUGGCUGUGGCUAGACUGCC [A4G C23A A25C], for which the self-cleavage came out at 1.74.

GGCGGAGCUCAACACCGCGUGGCAAAGUGGCUUAGGCUAGACUGCC [A4G A16C G33U U34A]: the self-cleavage was 0.05.

For GGCGGCGCUCAACACAGCGUGGCAAAGUGGCUGUGGGUAGACUUCC [A4G A6C C37G G44U], the self-cleavage was 0.37.

For the variant GGCGGAGUUCAACACAGCGUGGCAAAGUGACUGUGGCUUGACUGCC [A4G C8U G30A A39U], the self-cleavage is 0.74.

Turning to GGCGGGGAUCAACAAAGCGUGGCAAAGUGGCUGUGGCUAGACUGCC [A4G A6G C8A C15A], the self-cleavage was found to be 0.4.

As for GGCGGAGCUAAACACAACGUGGCAAAGUGGGUGUGGAUAGACUGCC [A4G C10A G17A C31G C37A], the self-cleavage amounted to 0.01.

Take GGCGGAGCUCAACACAGCGUGGCAAAGUGGUUGUGGCUAGACUACC [A4G C31U G44A]: the self-cleavage turned out to be 0.11.

With GGCGGAGCUCAACACAGCGUGGGAAAGUGGCCGUGGCUAGACUGCC [A4G C23G U32C], the self-cleavage stood at 0.06.

For the variant GGCGGAGCUCUACACAGCGAGGCAAAGUGGCUGUGGCUAGACUGCC [A4G A11U U20A], the self-cleavage is 0.01.

As to GGCGCACCUCAACACAGCGUGGCAAAGUGGCUGUGGCUACACUGCC [A4G G5C G7C G40C], the self-cleavage came to 0.3.

On to GGCGGAGCUCAACAAAGCGUGGCAAAGCGGCCGUGGCUAGACUGCC [A4G C15A U28C U32C], for which the self-cleavage was 0.06.

In the case of GGCGCAGCUCAACACAGCGUGGCAAAGUGGCUGUGGCUGGACUGCA [A4G G5C A39G C46A], the self-cleavage stood at 0.02.

Consider GGCGGAGCUCAACACAGCGUGGAAAAGUGGCUGUGGCUAGCCUGCC [A4G C23A A41C], for which the self-cleavage stood at 0.04.

GGCGGAGCUCAACACAGCGUGGCGAAGUGGCUGUGGGUAGACUGCC [A4G A24G C37G]: the self-cleavage came out at 0.03.

Take GGCGGAGCUCAACACAGCGUGGCAAGGUGGCUGUGACUAGACUGCC [A4G A26G G36A]: the self-cleavage was determined as 1.33.

For the variant GGCGGAGAUCAACACAGCGAGGGAAAGUGGCUGUGGCUAGACUGCA [A4G C8A U20A C23G C46A], the self-cleavage worked out at 0.12.

GGCGGAGCUCAAUACAGUGUUGCAAAGCGGCUGUGGCUAGACUGAC [A4G C13U C18U G21U U28C C45A]: the self-cleavage was found to be 0.39.

GGCGGAGCUCAACAAAGCGUGGCCAAGUGGCUGUGGCUAGACUGCC [A4G C15A A24C]: the self-cleavage was determined as 0.04.

On to GGCGGGGCUCAACACAGCGUGGCAAAGUGACUUUGUCUAGACUGCC [A4G A6G G30A G33U G36U], for which the self-cleavage was 0.23.

As for GGCGGAGCUCAAGACAGCGUGUCAAAGUGGCUGUGGCUAGACUGCC [A4G C13G G22U], the self-cleavage amounted to 0.06.
